The values that follow come from the RNAGym collection of RNA variant scans (doi:10.1093/nar/gkz1192).

B1: CPEB3 Ribozyme (parent)
chain: UAACAGGGGGCCACAGCAGAAGCGUUCACGUCGCAGCCCCUGUCAGAUUCUGGUGAAUCUGCGAAUUCUGCUGUAUAUCUC

The source gives no read counts; variants with many changes may rest on few reads.

The variants in this data set derive from B1. As to the kind of experiment: self-cleavage, relative activity (ratio to wild type); higher = more cleavage; in vitro, sequencing. A digest of the protocol:
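CPEB3 self-cleaving ribozyme mutant libraries were made by rounds of error-prone PCR, barcoded, and transcribed in vitro with T7 RNA polymerase for 5 hours at 37°C. Cleavage occurred during transcription and a 15 min DNase I step before EDTA stop. RNAs were reverse transcribed with template switching and Illumina-sequenced, with DNA sequencing mapping barcodes to variants. Relative activity is the variant's cleaved/total read fraction divided by wild type's (minimum 5 reads), averaged across three batches.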
Regarding G8A U54C A56G A65G U74C, the self-cleavage was found to be 0.08.

As to G8A A47G A56U C62U U69C, the self-cleavage amounted to 0.16. Regarding G8A A15U G61A U66C, the self-cleavage was found to be 0.12. With G8A A21G A35G G55C, the self-cleavage came to 0.08.

As to G8A A15G A18U G33U, the self-cleavage was found to be 0.13.

For the variant G7A C40G A45U, the self-cleavage worked out at 0.14.

Turning to G8A C12G A20G U54C U66C, the self-cleavage was determined as 0.05. G8A U43C G52A U74C: the self-cleavage stood at 0.36. In the case of G8A U25A U26C U41A A57G U69C, the self-cleavage turned out to be 0.05. In the case of G8A U26C U69C, the self-cleavage came to 0.1. For G8A A28G U48C U51C U72C U78C, the self-cleavage came to 0.05.

Turning to G8A A20G G30U A47G G55A U60C, the self-cleavage came to 0.06.

With G7A U31G A45G U69C, the self-cleavage was 0.06.

G6U U25C C32U U41A: the self-cleavage worked out at 0.07. G7A U78C U80C: the self-cleavage stood at 0.11. Take G8A A28G U49C: the self-cleavage was 0.25. Consider G7C U26A A64U U76C, for which the self-cleavage was 0.06.

For the variant G8A G36A A64G U72G, the self-cleavage is 0.04.

In the case of G7U A45G A47G U60A, the self-cleavage amounted to 0.06. The value for G8A A18U U48A was 0.25. As for G7C A28G C50U, the self-cleavage is 0.07.

On to G8A U54C A57G U67C, for which the self-cleavage is 0.09. As to G7U A64G A75G U78C, the self-cleavage was 0.11. As for G7A A13G U25A A64G, the self-cleavage was 0.31. With G7A A13G G42U U49C C59U, the self-cleavage was found to be 0.2. As for G7U C11G U43A G52C A77G, the self-cleavage came to 0.06. The value for G8A A45G U49C A64U was 0.15; that for G7U A18C G19U U31C U48C was 0.16. Consider G7A U25C U31C C37A U51A G63A, for which the self-cleavage amounted to 0.07. As to G7A G22A A64U, the self-cleavage amounted to 0.16.

Consider G8A C11A U67C, for which the self-cleavage worked out at 0.05. For G7U A18G U58C U72C, the self-cleavage is 0.06.

Take G6U C11G U25C U54A U58C C71U: the self-cleavage was found to be 0.08. G8C A13G U25C G52U U66A G73U U78C: the self-cleavage was 0.06.

For the variant G7U C12U U58C U67A, the self-cleavage turned out to be 0.06.

As for G7C A21U C27U U69A U78C, the self-cleavage amounted to 0.19. Turning to G7A C38A G42A C62U U76A, the self-cleavage was 0.04. On to G7C U54C C59U, for which the self-cleavage was 0.19. With G7U A20G G24A, the self-cleavage was 0.19. Regarding G7A A15U G16C U26C U80C, the self-cleavage was determined as 0.37. The value for G7C A20U G55A was 0.06. In the case of G8A A20G U25G A47G, the self-cleavage was determined as 0.07. Take G7A G16A A18U A20U: the self-cleavage was found to be 0.38. For G8A U31G A64G, the self-cleavage was 0.06.

In the case of G8A G61A C62G A65G, the self-cleavage worked out at 0.06.

For G8C A15G A28U U43C, the self-cleavage stood at 0.63.

Take G7A U25C A35G C62A U78C: the self-cleavage is 0.05. For G7A U26A U60C A64G, the self-cleavage is 0.05. Take G7A A18U U25C: the self-cleavage was determined as 0.07. For the variant G7C G30U U43C, the self-cleavage was found to be 0.08. As to G8A A20U U31C U43C U78C, the self-cleavage came out at 0.05.

Take G7A U41C G53U U72C: the self-cleavage is 0.27. In the case of G7U U25C U58C U72C U74C, the self-cleavage was found to be 0.13. On to G7A A13C G16U A28G U60C U72A U78G, for which the self-cleavage was 0.04.

Consider G7U A20G C50G A56G U72C, for which the self-cleavage was 0.07. As to G8A U41A A57U, the self-cleavage was found to be 0.36. For the variant G7U G19U A20G C39U, the self-cleavage came to 0.14. As for G8A A13C U26C U41A U66A, the self-cleavage turned out to be 0.06. With G7A G36A A65G U69C, the self-cleavage came out at 0.04. G8A A13U A20U C50A G53U A75G: the self-cleavage was determined as 0.04.

Regarding G7U A13U A15G U69A, the self-cleavage is 0.06. Consider G8A U51G A75U, for which the self-cleavage is 0.29. In the case of G7A A15G U26A G42A U54G A64U, the self-cleavage was 0.05. Take G8A A13G A28G: the self-cleavage amounted to 0.39.

G7C A28G U48C U60A A64G U72C U80A: the self-cleavage turned out to be 0.04. As to G6U U48A U60A U80A, the self-cleavage was 0.06.

With G7A U67A U80C, the self-cleavage amounted to 0.25.

With G7C U25C U26A U72C, the self-cleavage was 0.5. As to G7U U31A A35G U58C, the self-cleavage came out at 0.21. The value for G7A A45C U51A A64G A75G was 0.06; that for G8A C34U A64G was 0.04; that for G8A U26A A56U U72A U78C was 0.04. Consider G7U A56U A57G, for which the self-cleavage was determined as 0.14. With G7U U69C U72C U78G U80G, the self-cleavage came to 0.12. Regarding G7A U25C C40U A56U G70C, the self-cleavage is 0.04. As for G8A A13U G33A A45G U48C A56U, the self-cleavage stood at 0.1. Consider G8A G10A U60G C68U, for which the self-cleavage is 0.04.

Turning to G8A G24U U58G A65G C71U U80C, the self-cleavage is 0.04. For G8A A56G U80A, the self-cleavage was determined as 0.28. As to G8C A15G C29A A57G, the self-cleavage worked out at 0.19. For G8A G53A A64U U72C U74C, the self-cleavage came out at 0.07. Consider G8A G10A G24U A75U, for which the self-cleavage was 0.18. Regarding G8A A13G C34U U43A G53A A64G, the self-cleavage is 0.05. As to G7A U25C A28G U69C, the self-cleavage turned out to be 0.34. As for G7A A18G G24A A35U U67C, the self-cleavage was found to be 0.05. Consider G7A A45C U78G, for which the self-cleavage was determined as 0.07. Take G7A G9A U25A A45G U78C: the self-cleavage worked out at 0.05. The same measure for G8C A28G A57C: 0.22; for G7U A15C U54G: 0.09. The same measure for G8A A13G U26C: 0.13; for G8A A18U U54C A77U: 0.04.

G6U G33A A56G U67C: the self-cleavage was found to be 0.18. Take G8A U26C G36A U60C: the self-cleavage was 0.12.

Regarding G8A G24C A65G U80C, the self-cleavage turned out to be 0.11. The value for G6U U54A C71A U74C was 0.19; that for G8A C23U U48C U49C A57G U67C U76C was 0.04.

Regarding G7U A57G U80C, the self-cleavage was 0.08. In the case of G7A U49C A64G, the self-cleavage is 0.43. For the variant G7C G42A G61A C62U U69A A75G, the self-cleavage amounted to 0.05.

Turning to G6U U25G C32U A47G U67C, the self-cleavage was found to be 0.26.

G6U G63A U72C: the self-cleavage came to 0.34.

Take G7U A18C A35U U43C U67A U72A: the self-cleavage was found to be 0.05.

In the case of G7A C23G U26A U76C, the self-cleavage is 0.06. For the variant G8A C14G U51C U66C A75U U78A, the self-cleavage is 0.05. In the case of G8A U31C C62G U72C, the self-cleavage was determined as 0.17. As to G7A A13G A18U A20G, the self-cleavage is 0.07.

For the variant G8A A13U A21G U43C U60G U69A A77G, the self-cleavage was found to be 0.03. Consider G7U U41A A45G U80C, for which the self-cleavage is 0.08. With G7A C14U U41C, the self-cleavage was 0.1.

Take G7U A21G U26C U76A: the self-cleavage was 0.05. As for G7U C14U A15C C44A, the self-cleavage was 0.08.

For G8A A15C A35G A64C, the self-cleavage stood at 0.11. Turning to G7C U43C U69C, the self-cleavage was found to be 0.17.

Turning to G7C A13U U49C A56G U67C U78A, the self-cleavage stood at 0.09. As to G7A G10A A18G U58C U67C U78C U80C, the self-cleavage was 0.05. Take G8A A13G A18G C32G U41A U43C U48G: the self-cleavage was determined as 0.04.

As to G7U G16A A45G A77G, the self-cleavage came to 0.05.

On to G8A U26A A56U U58C, for which the self-cleavage came out at 0.06. The same measure for G7U G22C U41A G73C: 0.23; for G8A A13G U51C U67C C71A: 0.08. The same measure for G6U G16C U60C U69C: 0.06; for G7U A18G U72C: 0.08. The same measure for G7A A13U C40U A47G U54A U69A: 0.06.

Consider G8A A45U U60A, for which the self-cleavage was determined as 0.09. Turning to G7A U60C A75G, the self-cleavage was 0.09. Turning to G7A U26C U54G U67A, the self-cleavage was 0.14. On to G8A A35G A56G U72C, for which the self-cleavage was determined as 0.63. The value for G7C U48A U58C U60C was 0.07; that for G8A A20G G33A U49A U54G C68U was 0.04; that for G7A A13G A57G U69A was 0.27.

As for G7A U25A A47G A57U G63C U74A, the self-cleavage amounted to 0.04.

On to G7C A20U A21G A45U A75U, for which the self-cleavage is 0.13. For G8A U41A U54C U67A C79U, the self-cleavage amounted to 0.06. As to G8A A15U G30C U31A A35G U41A U49A, the self-cleavage turned out to be 0.04. With G7U U48C A64C U66C, the self-cleavage was 0.12. As to G7U C23G U25C U58C U67C U72C, the self-cleavage amounted to 0.06. G7A A15G U31C A35U U41A U58C U66A: the self-cleavage came to 0.04. For G7U U26C C32U, the self-cleavage worked out at 0.1. G7A A64U U67C: the self-cleavage amounted to 0.06. The value for G7U C27G U54C A57G C79A was 0.2; that for G8A A15U C29U U48C was 0.18. For G8A A28G A56C A65U U67A, the self-cleavage was determined as 0.07.

Take G8A A28U A35U G36U U60C: the self-cleavage stood at 0.05.

Consider G7A G19C G30C U41A U60C, for which the self-cleavage was 0.15. On to G8A A13U U51C G53A G73A, for which the self-cleavage turned out to be 0.11. G7A A18G C29A U74C: the self-cleavage is 0.07. For the variant G7A A21G U48A U80C, the self-cleavage amounted to 0.38. Consider G7A A20G U31G A35G, for which the self-cleavage turned out to be 0.07.

As for G8C A13U G33U A57U U69C, the self-cleavage came to 0.08. The same measure for G7C A15U U72C U78A: 0.2. Regarding G8A A21U U25C A35G U41A, the self-cleavage stood at 0.05. For the variant G7U A15U A18G U80A, the self-cleavage was found to be 0.05.

In the case of G6U G36A U67G, the self-cleavage was 0.07. For the variant G7U A18U U41C U54C C81U, the self-cleavage came out at 0.05. For the variant G8A A18G U31C C40U C44U A57G U67C, the self-cleavage was 0.03. As for G8A U31C U51A U58C A64C U74G, the self-cleavage was 0.04. In the case of G6U U51C U60C U80C, the self-cleavage stood at 0.08. For G7A A13U A28G U60A U78C, the self-cleavage was found to be 0.07. Turning to G8A C12U C14U A45G, the self-cleavage was 0.14. For G8A C11U A20U A47G U51A, the self-cleavage turned out to be 0.05. For G7A G10C U41A U48C U51A U72C, the self-cleavage came to 0.28. On to G8A G42A A45G U60C C79U, for which the self-cleavage came out at 0.19.

As to G7U U58C A64G, the self-cleavage was found to be 0.05. As for G7A U25C U54C U60C, the self-cleavage stood at 0.07. The value for G7U A15G U31A A35G A45U was 0.04; that for G8A A15G U26A U43C A56U was 0.2; that for G7U A18G U49A was 0.27.
